Data published in PubChem BioAssay (NCI).
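Cultured in 96-well plates, cells were exposed to test compound for 48 hours across five concentrations. GI50 = concentration required for 50% inhibition of growth. TGI is the concentration that stops growth completely.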

test system: NCI-H322M lung; assay: growth of human tumour cells (NCI), 48 h

**Q.** Which results are given for Cc1ccc(Cl)cc1NC(=O)c1sc2nc3c(cc2c1N)C(=O)CCC3?
**A.** GI50: 16 µM; TGI: > 100 µM

**Q.** Which TGI does the source give for CN(C)CC/[N+]([O-])=C(/c1ccccc1)C12CC3CC(CC(C3)C1)C2 here?
**A.** The TGI was 30.4 µM.

**Q.** COc1cc(/C=c2\sc3n(c2=O)C(c2ccc(Cl)cc2)C2=C(CCCC2C)N=3)cc(OC)c1OC (stereo not given) was tested. Which TGI did it give?
**A.** Its TGI is greater than 100 µM.

**Q.** For Cc1cc(C)c(-n2c(-c3ccc(Br)cc3)cs/c2=N\N=C2C=C(C(C)(C)C)C(=O)C(C(C)(C)C)=C2)c(C)c1, which TGI is on record?
**A.** Its TGI is greater than 100 µM.

**Q.** COc1ccc(/C=C2\CCC(C)C3=C2N=c2s/c(=C/c4cccc(Br)c4)c(=O)n2C3c2ccc(OC)c(OC)c2)cc1OC (stereo not given) was tested. Which TGI did it give?
**A.** The TGI was greater than 100 µM.

**Q.** For CCCCCCCc1cc2c3c(nc4ccccc42)C(=O)c2cccnc2-c3n1, which GI50 is on record?
**A.** Its GI50 is 1.88 µM.

**Q.** What about the TGI of the same compound?
**A.** Its TGI is 6.46 µM.

**Q.** How did the TGI turn out when COc1ccc(C(=O)/C=C/c2cc(O)c(O)c(F)c2F)c(OC)c1 was run?
**A.** Its TGI is greater than 100 µM.

**Q.** With Cc1cc(=O)oc2c(CNC(Cc3ccccc3)C(=O)O)c(O)ccc12 (stereo not given) as the compound, how does the TGI read?
**A.** Its TGI is greater than 100 µM.

**Q.** With COc1cc(Cc2nccc3cc(OC)c(OC)cc23)c(N=NN(C)C)cc1OC as the compound, how does the TGI read?
**A.** The TGI was 57.4 µM.

**Q.** How did the GI50 turn out when OCC#Cc1ccccc1C#CCCCCCC#Cc1ccccc1C#CCO was run?
**A.** The GI50 was 17.8 µM.

**Q.** And the TGI?
**A.** Its TGI is 40.2 µM.

**Q.** CCCC(=O)OC1C(CO)OC(n2cc(F)c(=O)[nH]c2=O)C1F (stereo not given) was tested. Which TGI did it give?
**A.** Its TGI is greater than 100 µM.

**Q.** CC(=O)Nc1ccc(C2SCc3nc4ccccc4n32)cc1 (stereo not given) was tested. Which TGI did it give?
**A.** The TGI was greater than 100 µM.
